Experimental data published in PubChem BioAssay AID686979 (National Center for Advancing Translational Sciences (NCATS), 2013).
Where “and” joins values, the source holds several entries; their conditions need not be identical. Identical values can stand only once. About 50,000 (12%) of roughly 420,000 compounds were called active. This list was built around the results that the source calls inconclusive (neither active nor inactive); the mix of calls is not that of the screen. Calls follow the shape of the dose curve; as a rule, active = well fitted inhibition curve with a large enough effect; inconclusive = small, poorly fitted or top-dose-only effect; inactive = flat fitted curve, though single readings scatter. A potency beside an inconclusive call is a rough fit, not a confirmed value.

assay: qHTS for Inhibitors of human tyrosyl-DNA phosphodiesterase 1 (TDP1): qHTS in cells in presence of CPT; details: chicken DT40 Tdp1-/-;hTDP1 cells + 20 nM CPT, ATP luminescence, 48 h; series mostly up to 46.2 µM; also: nearly all actives have a fitted effect of over 55% in size
Method in brief: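 Cell growth measured by CellTiter-Glo luminescence after a minimum 48 h, 37 C compound exposure with 20 nM CPT in Tdp1-knockout DT40 cells stably expressing hTDP1, seeded 400/well; qHTS titration format.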
Potency is read from the fitted curve at half-maximal effect; tags tell the direction and shape of the fitted curve.

Compound	Potency
Cc1ccc(NC(=O)c2ccc3c(c2)OCO3)cc1S(=O)(=O)N1CCOCC1	inconclusive: 25.9 µM [inhibitor, single point]
C[C@H]1COc2cc(N3CCC[C@@H]3CO)ccc2S(=O)(=O)N1	inactive
CCOc1ccc(-c2c(C(=O)N/N=C/c3cccnc3)nnn2-c2nonc2N)cc1	inactive
Cc1nn2c3c(cnc2c1-c1ccccc1)C(=O)CCC3	inactive
CCCCOc1ccc(CNn2c(C)nc3ccccc3c2=O)cc1	inconclusive: 29.1 µM [inhibitor, single point]
O=c1oc2c3c(ccc2c2ccccc12)OCN(Cc1cccc(Cl)c1)C3	inconclusive: 25.9 µM [inhibitor, single point]
CC(C)[C@H](NC(=O)c1ccccc1)C(=O)OCC(=O)N1CCCc2ccccc21	inactive
CCOC(=O)Cc1csc(NC(=O)CS(=O)(=O)Cc2ccccc2)n1	inactive
COc1ccc(NC(=O)c2cccc3c2C(=O)N(CC2CCCO2)C3)cc1OC (stereo not given)	active: 23.1 µM
O=[N+]([O-])c1cc(S(=O)(=O)Nc2ccc(Cl)cc2)ccc1N/N=C/c1ccncc1	inconclusive: 6.51 µM [inhibitor, partial curve]
CC(=O)Nc1cc(-c2cccc(C(=O)NCCO)c2)cn2c(-c3cccc(C(F)(F)F)c3)cnc12	active: 18.4 µM
COc1cc2c(cc1OC)C(NC(=O)C(F)(F)F)CNC2=O (stereo not given)	inconclusive: 25.9 µM [inhibitor, single point]
Cc1ccc2c(c1)C(c1ccccc1)N(C(=O)c1cc3ccccc3oc1=O)CC(=O)N2 (stereo not given)	inactive
Cc1nc2ccccc2n1C1CC(=O)N(Cc2ccccc2)C1=O (stereo not given)	inconclusive: 11.6 µM [inhibitor, partial curve]
Cc1c(CCNC(=O)Cc2ccccc2)sc2nc(-c3ccc(F)cc3)nn12	inconclusive: 29.1 µM [inhibitor, single point]
CCOc1ccccc1N(C)C(=O)C1CCCN(c2ncnc3onc(-c4ccc(F)cc4)c23)C1 (stereo not given)	active: 11.6 µM
Cn1c(=O)c2c(nc(CN3CCN(C(c4ccccc4)c4ccccc4)CC3)n2CCCO)n(C)c1=O	inconclusive: 23.1 µM [inhibitor, single point]
Cc1c(C(=O)c2ccc(Cl)cc2[N+](=O)[O-])c2ccccn2c1CCC#N	inconclusive: 20.6 µM [inhibitor, single point]
CCC(c1nc2ccccc2[nH]1)n1c(-c2ccc3ccccc3c2)nc2ccccc21 (stereo not given)	inconclusive: 29.1 µM [inhibitor, single point]
Cc1ccccc1-c1ccc(CN2CCc3nnc(CNC(=O)c4ccccn4)n3CC2)cc1	inconclusive: 29.1 µM [inhibitor, single point]
CCC(c1nnnn1C1CCCC1)N1CCC(C(N)=O)CC1 (stereo not given)	inactive
O=C(c1ccc2c(c1)OCCO2)N(Cc1cccnc1)c1nc2ccc(F)cc2s1	inconclusive: 29.1 µM [inhibitor, single point]
COc1ccc(NC(=O)c2cccc(N3C(=O)C4CC=C(C)CC4C3=O)c2)c(OC)c1 (stereo not given)	inconclusive: 16.4 µM [inhibitor, single point]
Cc1ccc(C(=O)CC2(O)C(=O)N(CCc3ccccc3)c3ccc(Br)cc32)o1 (stereo not given)	inconclusive: 29.1 µM [inhibitor, single point]

Compound	Potency
Nc1nonc1-c1nc2ccccc2n1Cc1ccc(F)cc1Cl	active: 20.6 µM
N#Cc1c(N)oc(-c2ccccc2)c1-c1ccccc1	inactive
COc1ccc(/C=C2/NC(=O)N(Cc3ccccc3F)C2=O)cc1OC	inconclusive: 23.1 µM [inhibitor, single point]
CCN1CCN(c2ccc(S(=O)(=O)N3CCOCC3)cc2NC(=O)C2CCC(C(C)(C)C)CC2)CC1 (stereo not given)	inconclusive: 29.1 µM [inhibitor, single point]
O=C(Nc1ccc(Oc2ccsc2C(=O)O)cc1)c1ccccc1F	inactive
Cc1cc(F)ccc1NC(=S)NCCc1ccccc1	inconclusive: 23.1 µM [inhibitor, single point]
Cc1c2cnn(CC(=O)NC3CCCC3)c(=O)c2c(C)n1Cc1ccccc1	inconclusive: 18.4 µM [inhibitor, single point]
CCOC(=O)c1cc[nH]c1CC(=O)NC	inactive
CCCCN(C)S(=O)(=O)c1cc2c(cc1Br)CCN2C(=O)C1CC1	active: 4.11 µM
C=C1CCC(C)C(C)(CCC2=CCOC2=O)C/C=C\C=C/1C(=O)O (stereo not given)	inactive
CCCCn1c(N)c(N(CC(C)C)C(=O)C2CCN(c3ncnc4sc(C)c(C)c34)CC2)c(=O)[nH]c1=O	inconclusive: 29.1 µM [inhibitor, single point]
Cc1c(C(=O)C(=O)NCCc2ccc(S(N)(=O)=O)cc2)c2ccccc2n1C	inconclusive: 5.8 µM [inhibitor, single point]
O=C(CSCc1ccc(Cl)cc1)N/N=C/c1ccc(OCC(=O)Nc2ccccc2)cc1	inconclusive: 29.1 µM [inhibitor, single point]
N=C1S/C(=C\c2cccc3ccccc23)C(=O)N1c1ccc(F)cc1	active: 5.17 µM
CC1CN(C(=O)N2CCC(C(=O)NC3CCCCCC3)CC2)c2cc(Cl)ccc2O1 (stereo not given)	active: 14.6 µM
COc1ccccc1N(CC(=O)Nc1cc(C)on1)S(=O)(=O)c1cccc(C(F)(F)F)c1	inconclusive: 18.4 µM [inhibitor, single point]
Cc1ccc(NC(=O)C2CCCN2S(=O)(=O)c2cccc3cccnc23)cc1 (stereo not given)	inconclusive: 29.1 µM [inhibitor, single point]
Oc1ccccc1C=NCCN1CCN(CCN=Cc2ccccc2O)C1c1ccccc1O (stereo not given)	inconclusive: 18.4 µM [inhibitor, single point]
COc1ccc[n+](CC(=O)c2ccc(F)cc2)c1	inactive
COc1cc(C)c(NC(=O)COc2cccc3c2OC(C)(C)C3)cc1OC	active: 16.4 µM
Cc1ccc(C(=O)CSc2nccn2-c2ccccc2)cc1	inconclusive: 29.1 µM [inhibitor, single point]
Cc1cccc(-c2nc(CS(=O)CC(=O)NC3CCCCC3)c(C)o2)c1 (stereo not given)	inactive
O=C(CC12CC3CC(CC(C3)C1)C2)NCC(=O)OCc1cc(=O)oc2ccc3ccccc3c12	inconclusive: 18.4 µM [inhibitor, single point]
COc1ccc(OCCCC(=O)N(C)CC(=O)Nc2c(C)cccc2C)cc1	inactive

Compound	Potency
O=C(CSC(=S)N1CCOCC1)c1ccccc1	inconclusive: 23.1 µM [inhibitor, single point]
O=C(NCCN1CCC(n2c(=O)[nH]c3ccccc32)CC1)c1cccc2c1-c1ccccc1C2=O	inconclusive: 23.1 µM [inhibitor, single point]
O=C(NC(=S)NCCc1ccc(Cl)cc1)c1ccco1	inactive
CC(=O)c1ccc(N2CCN(C(=O)CN(C)S(=O)(=O)c3cnc[nH]3)CC2)cc1	inactive
CCc1ccccc1-n1c(-c2ccncc2)n[nH]c1=S	inactive
Cc1cc(C)nc(SC2CCCCC2NS(=O)(=O)c2ccc(Cl)cc2)n1 (stereo not given)	inconclusive: 29.1 µM [inhibitor, single point]
O=c1[nH]c(SCc2ccc(F)cc2)nc2c1CCCC2	inconclusive: 29.1 µM [inhibitor, single point]
O=C(Cn1cc(SCc2cccc(Cl)c2)c2ccccc21)N1CCOCC1	inconclusive: 13 µM [inhibitor, partial curve] and inconclusive: 25.9 µM [inhibitor, single point]
O=C(CCCOc1ccc(Cl)cc1Cl)N/N=C/c1ccc(Cl)cc1	inconclusive: 18.4 µM [inhibitor, single point]
Cc1ccc(S(=O)(=O)N(C)c2ccc(OCC(=O)N3CCCCC3)cc2)cc1	inconclusive: 25.9 µM [inhibitor, single point]
COc1ccc(CNC(=O)C2CCCN(S(=O)(=O)c3ccc4c(c3)CCCN4C(C)=O)C2)cc1 (stereo not given)	active: 23.1 µM and active: 14.6 µM
Cc1ccc(-c2cc(C(=O)NCCc3ccccn3)c3ccccc3n2)c(C)c1	inconclusive: 23.1 µM [inhibitor, single point]
Cc1cccn2c(=O)c(C(=O)NC3CCCCC3C)c(O)nc12 (stereo not given)	inconclusive: 23.1 µM [inhibitor, partial curve, poor fit]
CN(CCC1CCCCO1)C(=O)CCc1nnc(CCCCc2ccccc2)o1 (stereo not given)	inconclusive: 23.1 µM [inhibitor, single point]
CN(C)CCCn1c(NCc2ccc3c(c2)OCO3)nc2ccccc21	inactive
Cc1cc(-c2nn(-c3ccccc3F)cc2CNCCc2cnccn2)c(C)s1	inconclusive: 29.1 µM [inhibitor, single point]
NC(=O)c1nc(C(=O)N2CCN(c3ccccc3)CC2)c2ccccc2n1	inactive
COc1ccccc1N1CCN(S(=O)(=O)c2ccc(F)c(C(=O)Nc3ccc(C)c(F)c3)c2)CC1	active: 16.4 µM
COc1ccccc1C(C)NC(=O)c1cc(S(=O)(=O)N2CCCCC2)ccc1C (stereo not given)	inconclusive: 23.1 µM [inhibitor, partial curve, poor fit]
COc1ccc(OCC(=O)NCCCN2CCOCC2)cc1	inactive
S=C(Nc1ccc2c(c1)OCO2)N1CCN(Cc2ccco2)CC1	inconclusive: 29.1 µM [inhibitor, single point]
O=C(NNC(=S)NCc1ccccc1)c1ccc(Br)cc1	inconclusive: 29.1 µM [inhibitor, single point]
